The other results are listed elsewhere or left out. The full chains were built here from the parent and the listed change. Values near 0.05 are background.
B1: TEV protease; numbered along this chain (parent)
chain: MGESLFKGPRDYNPISSSICHLTNESDGHTTSLYGIGFGPFIITNKHLFRRNNGTLVVQSLHGVFKVKDTTTLQQHLVDGRDMIIIRMPKDFPPFPQKLKFREPQREERICLVTTNFQTKSMSSMVSDTSCTFPSGDGIFWKHWIQTKDGQCGSPLVSTRDGFIVGIHSASNFTNTNNYFTSVPKNFMELLTNQEAQQWVSGWRLNADSVLWGGHKVFMVKPEEPFQPVKEATQL

Variants of: B1
Experiment: raw area under fraction-flipped curve 0-4 h after induction (AUC4h, not background-subtracted), DNA-recorder readout of cleavage of the substrate (dimensionless); higher = more cleavage of the substrate by the protease variant
Settings: temperature: 34 °C; time window: 0-4 h after rhamnose induction
Procedure: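 In vivo DNA recorder in E. coli TOP10(DE3) ΔrhaA at 34 °C. Each TEVp single-site mutant (parent TEVp 0) is paired with a single-site variant of the 7-mer TEVs (canonical ENLYFQ|S). The substrate sits between flexible linkers in a Bxb1-sfGFP-TEVs-SsrA fusion, so cleavage stabilises Bxb1 and speeds flipping of a recombination array, read by NGS. The value is the raw area under the fraction-flipped curve over 0-4 h after rhamnose induction (AUC4h), with ≥20 reads per time point. It is not background-subtracted; inactive controls average about 0.047.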
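Further: Bxb1 expression induced with 0.2% (w/v) L-rhamnose at OD600 near 0.5, cultures sampled hourly, flipped fraction per protease–substrate barcode pair counted by paired-end Illumina sequencing.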

Variant	area with substrate ENLYFQA	area with substrate ENLYFQC	area with substrate ENLYFQF	area with substrate ENLYFQG	area with substrate ENLYFQH	area with substrate ENLYFQI	area with substrate ENLYFQL	area with substrate ENLYFQM	area with substrate ENLYFQN	area with substrate ENLYFQR	area with substrate ENLYFQS	area with substrate ENLYFQT	area with substrate ENLYFQV	area with substrate ENLYFQW	area with substrate ENLYFQD	area with substrate ENLYFQK	area with substrate ENLYFQQ	area with substrate ENLYFQY	area with substrate ENLYFQP	area with substrate ENLYFQE
MGESLFKGPRDYNPISSSICHLTSESDGHTTSLYGIGFGPFIITNKHLFRRNNGTLVVQSLHGVFKVKDTTTLQQHLVDGRDMIIIRMPKDFPPFPQKLKFREPQREERICLVTTNFQTKSMSSMVSDTSCTFPSGDGIFWKHWIQTKDGQCGSPLVSTRDGFIVGIHSASNFTNTNNYFTSVPKNFMELLTNQEAQQWVSGWRLNADSVLWGGHKVFMVKPEEPFQPVKEATQL [N24S]	0.072	0.0697	0.0875	0.0549	0.067	0.0589	0.06	0.0806	0.0679	0.0665	0.0766	0.0636	0.0513	0.0725						
MGESLFKGPRDYNPISSSICHLTPESDGHTTSLYGIGFGPFIITNKHLFRRNNGTLVVQSLHGVFKVKDTTTLQQHLVDGRDMIIIRMPKDFPPFPQKLKFREPQREERICLVTTNFQTKSMSSMVSDTSCTFPSGDGIFWKHWIQTKDGQCGSPLVSTRDGFIVGIHSASNFTNTNNYFTSVPKNFMELLTNQEAQQWVSGWRLNADSVLWGGHKVFMVKPEEPFQPVKEATQL [N24P]	0.0539	0.0616	0.0569	0.0453		0.0454	0.0588		0.0585	0.0567	0.059	0.0546	0.0621	0.0546	0.0562	0.0504	0.065	0.0573		
MGESLFKGPRDYNPISSSICHLTNESDGHTTSLYGIGFGPFIITNKHLFRRNNGTLVVQSLHGVFKVKDTTTLQQHLVDGRDMIIIRMPKDFPPFPQKLKFREPQREERICLVTTNFQTKSMSSMVSDTSCTFPSGDGIFWKHWIQTKDGQCGSPLVSTRDGFIVGIHSASNFRNTNNYFTSVPKNFMELLTNQEAQQWVSGWRLNADSVLWGGHKVFMVKPEEPFQPVKEATQL [T174R]	0.0572	0.0856			0.0866	0.0529		0.0626	0.0588	0.0631	0.0887	0.059	0.0684	0.0501	0.0661	0.0667			0.0573	
MGESLFKGPRDYNPISSSICHLTNESDGHTTSLYGIGFGPFIITNKHLFRRNNGTLVVQSLHGVFKVKDTTTLQQHLVDGRDMIIIRMPKDFPPFPQKLKFREPQREERICLVTTNFQTKSMSSMVSDTSCTFPSGDGIFWKHWIQTKDGQCGSPLVSTRDGFIVGIHSASNFTNTNNYFTSVPKNFMELLTNQEAQQWFSGWRLNADSVLWGGHKVFMVKPEEPFQPVKEATQL [V200F]	0.0639	0.0575							0.0637		0.069	0.0889	0.0678		0.0603			0.073		
MGESLFKGPRDYNPISSSICHLTNESDGHTTSLYGIGFGPFIITNKHLFRRNNGTLVVQSLHGVFKVKDTTTLQQHLVDGRDMIIIRMPKDFPPFPQKLKFREPQREERICLVTTNFQTKSMSSMVSDTSCTFPSGDGIFWYHWIQTKDGQCGSPLVSTRDGFIVGIHSASNFTNTNNYFTSVPKNFMELLTNQEAQQWVSGWRLNADSVLWGGHKVFMVKPEEPFQPVKEATQL [K142Y]	0.0966	0.115	0.0655			0.0611	0.0558	0.0913		0.0813	0.0974	0.0757				0.0599			0.0539	
MGESLFKGPRDYNPISSSICHLTNESDGHTTSLYGIGFGPFIITNKHLFRRNNGTLVVQSLHGVFKVKDTTTLQQHLVDGRDMIIIRMPKDFPPFPQKLKFREPQREERICLVTTNFQTKSMSSMVSDTSCTFPSGDGIFWKHWIQTKDGQCGSPLVSTRDGFIVGIHSASNFTNTNNYFTSVPKNFMELLTNQEAQQWVSGWRLFADSVLWGGHKVFMVKPEEPFQPVKEATQL [N206F]	0.11		0.0555		0.012	0.0639	0.0649	0.0694	0.0617		0.0815	0.0618	0.0459	0.059	0.0888	0.0666		0.0926	0.053	
MGESLFKGPRDYNPISSSICHLTNESDGHTTSLYGIGFGPFIITWKHLFRRNNGTLVVQSLHGVFKVKDTTTLQQHLVDGRDMIIIRMPKDFPPFPQKLKFREPQREERICLVTTNFQTKSMSSMVSDTSCTFPSGDGIFWKHWIQTKDGQCGSPLVSTRDGFIVGIHSASNFTNTNNYFTSVPKNFMELLTNQEAQQWVSGWRLNADSVLWGGHKVFMVKPEEPFQPVKEATQL [N45W]	0.0563	0.058	0.0327	0.0723	0.057	0.0496	0.0624		0.0567	0.043	0.0587	0.0529	0.0536	0.0549	0.0661	0.0508		0.0852	0.055	0.0341
MGESLFKGPRDYNPISSSICHLTNESDGHTTSLYGIGFGPFIITNKHLFRRNNGTLVVQSLHGVFKVKDTTTLQQHLVDGRDMIIIRMPKDFPPFEQKLKFREPQREERICLVTTNFQTKSMSSMVSDTSCTFPSGDGIFWKHWIQTKDGQCGSPLVSTRDGFIVGIHSASNFTNTNNYFTSVPKNFMELLTNQEAQQWVSGWRLNADSVLWGGHKVFMVKPEEPFQPVKEATQL [P96E]	0.0932	0.116	0.0564		0.121		0.0591	0.0818	0.0896	0.0626	0.103	0.074	0.0588	0.0615		0.0463		0.0649	0.0636	
MGESLFKGPRDYNPISSSICHLTNESDGHTTSLYGIGFGPFIITNKHLFRRNNGTLVVQSLHGVFKVKDTTTLQQHLVDGRDMIIIRMPKDFPPFPQKLKFREPQREERICDVTTNFQTKSMSSMVSDTSCTFPSGDGIFWKHWIQTKDGQCGSPLVSTRDGFIVGIHSASNFTNTNNYFTSVPKNFMELLTNQEAQQWVSGWRLNADSVLWGGHKVFMVKPEEPFQPVKEATQL [L112D]	0.0615	0.0569			0.0625	0.0528		0.0612			0.059	0.0574	0.0565	0.0457				0.0646	0.061	
